Source: PubChem BioAssay AID1963845 (Molecular Pharmacology Branch, DTP, NCI, 2024)
A number of entries come with more than one value. They are shown here; other results are not. The source may hold further records. The values listed for one entry are repeated measurements in other runs, samples, wells, individuals or studies. Counts like (3×) stand for listed records that agree.

Tested on: 429239-143-T-J1-PDC complex spheroid viability
Experiment: Anticancer human tumor 429239-143-T-J1-PDC patient-derived small cell lung carcinoma cell line growth inhibition [POLQ]
Conditions: stronger effect = lower value
Description: Multicellular complex tumor spheroid response to Polymerase (POL) inhibitors (novobiocin, ART-558, RP6685) in combination with a variety of drugs and investigational agents in selected tumor cell lines
The POL inhibitors (novobiocin, ART-558, and RP6685) were evaluated both individually and in combination with standard of care and investigational anticancer small molecules within a complex spheroid model of solid tumors. . Complex spheroids include a stromal component modeled by human endothelial cells (HUVEC) and fibroblasts modeled by human mesenchymal stem cells (MSCs). The concentration ranges selected for each drug and investigational agent were based upon clinically achievable concentrations if the clinical Cmax of the agent was known.
Compounds. The drugs and investigational agents: novobiocin (NSC847541), ART-558 (NSC835418), RP-6685 (NSC848927), peposertib (NSC802822), ceralasertib (NSC780249), elimusertib (NSC800525), camonsertib (NSC841442), AZD-1390 (NSC803789), olaparib (NSC753686), talazoparib (NSC767125), rucaparib (NSC756644), sotorasib (NSC818433), MRTX-1133 (NSC836407), SN-38 (NSC673596), topotecan (NSC609699), epotoside (NSC141540), doxorubicin (NSC123127), gemcitabine (NSC613327), 5-fluorouracil (NSC19893), paclitaxel (NSC125973), vemurafenib (NSC761431), MSA-2 (NSC828583), SN-011 (NSC837082), adavosertib (NSC754352), prexasertib (NSC758257), carboplatin (NSC241240) and oxaliplatin (NSC266046), were obtained from the National Cancer Institute (NCI) Developmental Therapeutics Program Chemical Repository (21). The FDA-approved anticancer drug set is available from the Developmental Therapeutics Program at https://dtp.cancer.gov/organization/dscb/obtaining/. […] The stock solutions were prepared in dimethyl sulfoxide (DMSO, Sigma-Aldrich, St. Louis, MO, cat. D2650), except for the platinum compounds which were prepared in saline (Quality Biological, Gaithersburg, MD, cat. 114-055-101), at 800-fold the tested concentration and stored at -70 degrees C prior to their use. All drugs and investigational agents were tested over a range starting from a high concentration at or near the clinical Cmax and decreasing in half-log increments. If the clinical Cmax for an agent had not been determined, the highest concentration tested was 10 microM, except for SN-38, which was tested at a high concentration of 1 microM.
Cell Culture. All cells were maintained in an incubator at 37 degrees C and 5% CO2 with 95% humidity. The PDC lines were cultured according to standard operating procedures established by the NCI PDMR (https://pdmr.cancer.gov). Table 3 of the manuscript, lists the cell lines along with the number of the three cell types plated to form the mct-spheroids and media for tumor cell growth. […]
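Also: luminescence signal used as surrogate measure of viable cells; spheroids exposed to compounds for seven days before readout; 100% = DMSO vehicle control viability as luminescence relative to vehicle.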

COc1ccc([C@@H](O)c2cc(-c3ncnc4cc(N5CCOCC5)ccc34)c(F)cc2Cl)nn1
viability, T/C (compound alone 10 µM): 13.8%, 8.72%, 49.9%

Nc1ccc(C#CCN(C(=O)Cc2ncc(C(F)(F)F)cc2C(F)(F)F)c2ccc(F)cc2)nn1
viability, T/C (compound alone 3.16 µM): 104 (2×), 108 (2×), 106 (2×), 109, 113, 107, 105, 122, 116, 93.1%

COC1C(OC(N)=O)C(O)C(Oc2ccc3c(O)c(NC(=O)c4ccc(O)c(CC=C(C)C)c4)c(=O)oc3c2C)OC1(C)C (centres undefined)
viability, T/C (compound alone 1 µM): 102, 116, 109, 105 (2×), 103, 120, 110, 108, 123, 97.3, 101, 99%
viability, T/C (compound alone 10 µM): 100, 109, 98.4, 91.8, 85.1, 96.7, 81.7, 89.3, 105 (2×), 103, 85.5, 97.7%
